Values marked as one replicate rest on one cluster of the flow cell; about a third of the high ones do not repeat.
Tested on: ATP
Assay: switch fluorescence ratio, 500 uM ATP over buffer (Cy3 cluster intensity, sum of 5 cycles each) (fold (ratio)); higher = stronger signal-on switching upon ATP binding; sequences stand for … in TCGTCGGCAGCGTCAGATGTGTATAAGAGACAGTTTTTTTTTTTTTTTTTTTTTTTTT…TC
Settings: aptamer strand: ATP DNA aptamer (quencher-CACCTGGGGGAGTATTGCGGAGGAAGG + anchor), 100 nM annealed; ATP concentration: 500 uM; one replicate
Summary of the method: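 The fluorescence ratio divides summed target-cycle Cy3 intensity by summed buffer-cycle Cy3 intensity for each cluster and is averaged per switch-domain sequence. Cy3-labelled switching-strand clusters on a modified Illumina MiSeq flow-cell were annealed to 100 nM quencher-labelled ATP aptamer, then imaged in selection buffer and again after 15 min with 500 uM ATP at 22 °C. Five such cycles were run, with NaOH stripping and re-annealing between them, and clusters outside 100-1000 RFU were excluded.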
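Further: ATP exposure 15 min at 22 °C before imaging.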

Sequence	switch fluorescence ratio
GTTGTGTAGT	1.02
AGGGCAATCC	1.33
ACAAGGGTGG	0.998
GTGGCCAACA	0.996
AGATCTTCTG	1.07
TCTAAGTCGT	0.914
ATCCCGCCTA	1.07
TACGGGCGCA	1.01
AAGGTTAACT	0.987
AGTTACGTT	1.04
TAGTAGTAAG	1.03
CGGCCGACAC	1.06
CGCTTCTGTG	0.984
CGGTGCTGGT	0.993
CAGCGCATTT	1.19
TGTTAACGA	0.992
GAGACCGGCA	1.02
AGATTCTCA	1
GGTAACTAGC	0.94
TGAGTGATG	0.968
GCAAGTTTTC	0.97
TATTATCTCC	1.02
GTGTCTTTAT	0.942

Sequence	switch fluorescence ratio
CGTGTCGACT	0.955
TCAAAAATTG	0.994
AACGCAGT	0.995
CCTTCGATTT	1.25
CATTACAGC	1.02
GGAGGAGCTC	1.05
AGGATCCAGG	1.14
ACTAAGAACG	1.04
GAGACCTCT	1
CAACAATGTT	1.01
GCATCAGATT	1
ACTAGGGATT	1.07
AAAGGTAAGC	0.98
GGCGTAAAGG	1.01
TGATGACCCC	1.2
GGTAAACGGC	1.02
CCCGTTATTT	1.09
CCGGCCCTGT	1.04
TTAGTAACTT	1.03
ACGGGGAACA	1.03
GTTTCGACGC	1.26
CTCTTCTATT	1.03
CGGCGCTCT	1.03

Sequence	switch fluorescence ratio
AGTTCTGAGC	1.03
GTAAATAGCC	1.03
ACTTCCGTGT	1.12
GATGGCGGTC	0.988
ATGTTATAGG	0.985
GTTGTCTACA	0.994
TGCTTTATGG	0.987
ACCACCCGTG	1.19
AATTTGAGAG	0.978
TTCAGAATCT	1.02
TTACCGTACC	1.69
TCCTCTTTCT	1.04
GTAGGACTAT	1.03
TCGGTCAGTC	1.02
TACGGCTCGA	1.03
GGCGGGATGA	1.02
CAGTGGGT	1.02
ATTAATCTTA	0.962
TTCAATGCAG	1
TTACTAGTCA	0.999
TTAAGCCATC	1.21
GCGTGGATGC	1.02
GCAGATAAGT	1.05

Sequence	switch fluorescence ratio
AGATATAGAT	0.972
AACCATTTGT	1
CTAGGGAATA	1.02
AGCTTGGATC	1
TGTGGCCCGT	0.995
CCATAGGTCT	1.05
CACGTGGTTT	0.995
AAATTTGCCT	1.1
CTCGAACGCG	1.04
ATTGGTTT	1.01
ACAACCTAA	1.05
GTGAATTTAC	1.05
TTGGGCACAG	0.97
TTCGGGTCTG	1.05
GGCCCCAGAG	1.72
TCGCTACGTT	1.03
TCAATGGCGC	1.04
ATCCACTGAA	1.04
TTGCGGAGCG	1.01
CGTGGCCCGA	0.935
CGTAGCCCGT	1.04
ATACGTTC	1.02
CGTCGGTGGG	1.02

Sequence	switch fluorescence ratio
TAAGACTAGG	1.03
CGTGTTGGTT	0.995
TTACGTGATG	1.04
GTTAGTTGGG	0.965
AGCAACTGGG	1.14
GGCCTTCACC	1.1
ATTCGCCGT	1.07
CGCGCGAGTT	0.986
CAATACTGTG	1.15
AAGTAATCTG	1.01
GATACAATTT	1.09
TTACCTTTTC	1.1
GTTCTGTCAT	0.961
AAAAAAGATA	0.989
GGAGTCCACA	1.03
GGTCATGGTT	0.992
TTATGAAAGT	0.961
TGGAAACCGT	1.13
ATAAAAGGAA	0.963
AGTCACTGGA	1.19
CTTTGGTGGC	0.999
GAGGATAAAC	0.998
GGAAATTAGG	1.01

Sequence	switch fluorescence ratio
CAGTGCTGCG	0.974
ATTTTGAACT	0.945
ACGCCGCCT	0.989
CATATAAATG	1.02
ATGGTATTAA	1.05
AAAGGCCTAG	1.02
TGAGAAAAT	1.02
TCTGGTTTCC	1.04
GAGGAGTTAG	1.02
AGTCTGCTT	1.02
AGGAGCGGCT	0.991
AAAAGGCAAA	0.997
TAATTGGTCG	1.01
GGCTTATGAC	1.01
GGCGAACTTG	0.969
TTTAGTAGTA	0.959
TAATTTTACT	0.993
GCTTAATTTT	1.02
GAGTTAACTT	1.02
GCCAACTTCT	0.975
GGGACAAATC	0.996
ATGGATTGAC	1.05
GCAAAAGCGG	0.971

Sequence	switch fluorescence ratio
GGCATTGCAG	1.01
ACTAGGGAG	1.02
GGAGCCAAAG	1.03
GAGTTTCAAA	1.04
TCCGGACTTT	0.995
GCATATCGGC	0.992
GGAGGCCCTG	0.997
CATGCTTTCG	0.979
GTGGGTCCGC	1.05
GCAGGACAAG	1.01
TGACGAACAT	1.3
CCTGTACCTA	1.07
ATACCTGTT	0.972
ATCAAGTTAA	1.01
TTACCGTAAC	1.43
TGGAGAGAGT	0.957
CTAGGTATCT	0.999
GTGTACGGAC	1.15
CCGATTCAGT	1.95
CCTCGTCGGG	1.07

Reference: the supplement of paper PMC10126150
